# Test results: the supplement of paper PMC8728848
# Some of the results follow.
# B1: LEA (Lycopersicon esculentum) (protein)
# chain: NEVFDVPMNETIGVESINASVGGYPRCGAQGDGGNCPSGMCCSVWGWCGKTYGYCAPQNCQKQCPAPYPEGRCGWQADGKSCPNGKCCSYGGWCGTTSDYCARQNCQKQCILPSPPPPPPPPPGFPRPECGLQKNGERCTKPGECCSIWGLCGATYKYCDPQHCQKQCSAPFPPGRCGWQADGRPCPTGQCCSFSGWCGTTSAHCTYPQCVSQCNDPRFPSSLNNRIQSFML
# How the values were obtained:
# Assay in all cases: glycan array binding signal (z-score within array); higher = stronger binding
# Conditions in all cases: glycan notation: IUPAC condensed, linker removed
# [1] = target: Man(a1-3)[Man(a1-6)]Man(a1-6)[Man(a1-3)]Man(b1-4)GlcNAc(b1-4)GlcNAc
# Outline: (§1)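 Glycan array binding is given as a within-array Z-score, which can be read as non-binding when negative. The arrays, 3228 of them, came from the Consortium for Functional Glycomics database and were retained only where the protein sequence was available. Z-scores were averaged across arrays of the same protein sequence at different concentrations or buffers and across linkers.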
# [2] = target: Man(a1-3)[Man(a1-6)]Man(b1-4)GlcNAc(b1-4)GlcNAc
# Outline: as §1
# [3] = target: Man(b1-4)GlcNAc
# Outline: as §1
# [4] = target: Neu5Ac(a2-3)Gal
# Outline: as §1
# [5] = target: Neu5Ac(a2-3)Gal(b1-3)GalNAc
# Outline: as §1
# [6] = target: Neu5Ac(a2-3)Gal(b1-3)GalNAc(b1-3)Gal(a1-4)Gal(b1-4)Glc
# Outline: as §1
# [7] = target: Neu5Ac(a2-3)Gal(b1-3)GalNAc(b1-4)[Neu5Ac(a2-3)]Gal(b1-4)Glc
# Outline: as §1
# [8] = target: Neu5Ac(a2-3)Gal(b1-3)GalNAc6S
# Outline: as §1
# [9] = target: Neu5Ac(a2-3)Gal(b1-3)GlcNAc
# Outline: as §1
# [10] = target: Neu5Ac(a2-3)Gal(b1-3)GlcNAc(b1-3)Gal(b1-3)GlcNAc
# Outline: as §1
# [11] = target: Neu5Ac(a2-3)Gal(b1-3)GlcNAc(b1-3)Gal(b1-4)GlcNAc
# Outline: as §1
# [12] = target: Neu5Ac(a2-3)Gal(b1-3)GlcNAc6S
# Outline: as §1
# [13] = target: Neu5Ac(a2-3)Gal(b1-3)[Fuc(a1-4)]GlcNAc
# Outline: as §1
# [14] = target: Neu5Ac(a2-3)Gal(b1-3)[Fuc(a1-4)]GlcNAc(b1-3)Gal(b1-4)[Fuc(a1-3)]GlcNAc
# Outline: as §1
# [15] = target: Neu5Ac(a2-3)Gal(b1-3)[Neu5Ac(a2-3)Gal(b1-4)]GlcNAc
# Outline: as §1
# [16] = target: Neu5Ac(a2-3)Gal(b1-3)[Neu5Ac(a2-6)]GalNAc
# Outline: as §1
# [17] = target: Neu5Ac(a2-3)Gal(b1-4)Glc
# Outline: as §1
# [18] = target: Neu5Ac(a2-3)Gal(b1-4)GlcNAc
# Outline: as §1
# [19] = target: Neu5Ac(a2-3)Gal(b1-4)GlcNAc(b1-3)Gal(b1-3)GlcNAc
# Outline: as §1
# [20] = target: Neu5Ac(a2-3)Gal(b1-4)GlcNAc(b1-3)Gal(b1-4)GlcNAc
# Outline: as §1
# [21] = target: Neu5Ac(a2-3)Gal(b1-4)GlcNAc(b1-3)Gal(b1-4)GlcNAc(b1-3)Gal(b1-4)GlcNAc
# Outline: as §1
# [22] = target: Neu5Ac(a2-3)Gal(b1-4)GlcNAc(b1-3)Gal(b1-4)[Fuc(a1-3)]GlcNAc
# Outline: as §1
# [23] = target: Neu5Ac(a2-3)Gal(b1-4)GlcNAc(b1-6)[Gal(b1-3)]GalNAc
# Outline: as §1
# [24] = target: Neu5Ac(a2-3)Gal(b1-4)GlcNAc6S
# Outline: as §1
# [25] = target: Neu5Ac(a2-3)Gal(b1-4)[Fuc(a1-3)]GlcNAc
# Outline: as §1
# [26] = target: Neu5Ac(a2-3)Gal(b1-4)[Fuc(a1-3)]GlcNAc(b1-3)Gal
# Outline: as §1
# [27] = target: Neu5Ac(a2-3)Gal(b1-4)[Fuc(a1-3)]GlcNAc(b1-3)Gal(b1-4)GlcNAc
# Outline: as §1
# [28] = target: Neu5Ac(a2-3)Gal(b1-4)[Fuc(a1-3)]GlcNAc(b1-3)Gal(b1-4)[Fuc(a1-3)]GlcNAc(b1-3)Gal(b1-4)[Fuc(a1-3)]GlcNAc
# Outline: as §1
# [29] = target: Neu5Ac(a2-3)Gal(b1-4)[Fuc(a1-3)]GlcNAc6S
# Outline: as §1
binder,measurement,setting,value
B1,glycan array binding signal (z-score),[1],0.948
same,glycan array binding signal (z-score),[2],1.87
same,glycan array binding signal (z-score),[3],-0.51
same,glycan array binding signal (z-score),[4],-0.526
same,glycan array binding signal (z-score),[5],-0.56
same,glycan array binding signal (z-score),[6],-0.55
same,glycan array binding signal (z-score),[7],-0.518
same,glycan array binding signal (z-score),[8],-0.466
same,glycan array binding signal (z-score),[9],-0.511
same,glycan array binding signal (z-score),[10],-0.547
same,glycan array binding signal (z-score),[11],2.06
same,glycan array binding signal (z-score),[12],-0.422
same,glycan array binding signal (z-score),[13],-0.551
same,glycan array binding signal (z-score),[14],-0.384
same,glycan array binding signal (z-score),[15],-0.471
same,glycan array binding signal (z-score),[16],-0.555
same,glycan array binding signal (z-score),[17],-0.547
same,glycan array binding signal (z-score),[18],1.57
same,glycan array binding signal (z-score),[19],-0.129
same,glycan array binding signal (z-score),[20],1.63
same,glycan array binding signal (z-score),[21],1.44
same,glycan array binding signal (z-score),[22],-0.542
same,glycan array binding signal (z-score),[23],-0.523
same,glycan array binding signal (z-score),[24],1.72
same,glycan array binding signal (z-score),[25],0.885
same,glycan array binding signal (z-score),[26],-0.553
same,glycan array binding signal (z-score),[27],1.81
same,glycan array binding signal (z-score),[28],-0.54
same,glycan array binding signal (z-score),[29],-0.509
